According to ChEMBL document CHEMBL4888484, “Replenishing the malaria drug discovery pipeline: Screening and hit evaluation of the MMV Hit Generation Library 1 (HGL1) against asexual blood stage Plasmodium falciparum ,using a nano luciferase reporter read-out” (2022):
Values joined by “and” are separate entries in the source; they are usually repeats but may differ in a detail not shown here. Identical values can stand only once. The campaign covered roughly 150,000 compounds. About 540 (0.36%) showed an effect of 50% or more. Some of the results follow.

Tested on: Plasmodium falciparum
Assay: Primary screen in NF54 nanoGlo assay, in single point, at 2uM, 72h; a lower Z score goes with more inhibition
Format: functional, Erythrocyte
Settings: timepoint 72 hour

Structure (SMILES)	% Inhibition [%]	Z score	% Inhibition (2 µM)
CC(C)(c1nc(-c2ncc[nH]2)no1)S(=O)(=O)C1CC1	-8	0.89	–
Cc1nc2ccccc2n1CCNC1[C@@H]2CCO[C@@H]2C12CCC2 (stereo partly specified)	16	-2.05	–
Cc1ccccc1-c1noc(CN2CCN(CN3CCOC3=S)CC2)n1	-10	1.62	–
NC(=O)c1cccc(CN2CCC3(CC2)C[C@@H]3c2nnc(-c3ccccc3)o2)c1	-3	0.36	–
CC(NC(=O)N1CCC(C(N)=O)C1)c1ccc(Cl)s1 (stereo unspecified)	-33	3.03	–
CC(=O)Nc1ccc(CCNCc2cn(C)nc2-c2ccncc2)cc1	-18	1.84	–
Cc1ccc(N(C)S(=O)(=O)c2cc(C(=O)N3CCCC3)cs2)cc1	1	-0.05	–
C=CCC1(O)C(C)C(c2ccc(N(C)C)cc2)NC(c2ccc(N(C)C)cc2)C1C (stereo unspecified)	-21	3.12	–
CCN(CC)Cc1csc(NC(=O)c2ccn(C)n2)n1	-22	2.92	–
Cc1cccc(C)c1NC(=O)N1CCC2(CC1)C(=O)N(CC(=O)N(C)Cc1ccccc1)CN2c1ccccc1	4	-0.63	–
CN(C)S(=O)(=O)N1C[C@H]2CC[C@@H](C1)N(Cc1ccc(-n3cccn3)cc1)C2	-9	1.6	–
O=C1CCOCCN1Cc1cccc2ccccc12	-9	1.7	–
Cc1cccc(NC(=O)C2CCN(S(=O)(=O)c3c(C)nn(-c4ccccc4)c3C)CC2)c1C	-6	0.88	–
O=C(N[C@@H]1CN(C2CCCCCC2)C[C@H]1CO)c1ccncc1	-14	1.99	–
Cc1nnc([C@H](C)NC(c2ccccc2C)c2ccccc2C)s1	-5	0.8	–
Cc1ncsc1C(=O)NS(=O)(=O)c1c(C)nn(C)c1C	9	-1.17	–
CC[C@H](C)C(=O)NCCCN1CCCC1	-38	4.49	–
Cc1ccc(NC(=O)CC(=O)N(C)Cc2cc(C)no2)c(C)c1	-3	0.4	–
Cc1nn(CCCNC(=O)[C@H]2CCOC2)c(C)c1Cl	-6	1.16	–
COc1cc(N[C@@H]2COCC[C@@H]2OCc2c(C)noc2C)nc(N)n1	-6	0.92	–
O=C(NCCn1cc(Br)cn1)C1CCC1c1ccc(F)cc1 (stereo unspecified)	-12	1.88	–
Cn1c(=O)c2c(ncn2[C@@H](C(=O)Nc2ccc(Cl)c(C(F)(F)F)c2)c2ccccc2)n(C)c1=O	1	-0.21	–

Structure (SMILES)	% Inhibition [%]	Z score	% Inhibition (2 µM)
Cc1cnn(CCNCC(=O)N2CCOC3CCCCC32)c1 (stereo unspecified)	-8	0.9	–
CCC1CCN(CCNc2ncc(F)c(OC)n2)CC1	-13	1.32	–
CC1CN(C(=O)CN2CC(c3ccsc3)CC2C)CCO1 (stereo unspecified)	-7	0.96	–
COc1cc(-c2ncnn2CC(C)(C)O)ccn1	-12	1.44	–
C#CCNC(=O)Cc1cc(OCC)c(OCC)cc1Br	-10	0.87	–
COCc1nnc(NC(=O)c2ccc3c(c2)C(=O)N(C2CCCCCC2)C3=O)s1	5	-0.68	–
Cn1cc(S(=O)(=O)N[C@H]2CCN(c3ccc(Cl)cc3)C2)cn1	0	-0.06	–
CC(C)OC1CCC(NC(=O)N(C)CC2(N(C)C)CCC2)CC1 (stereo unspecified)	2	-0.28	–
C#Cc1cccc(NC(=O)N[C@@H](C)C(=O)N2CCS(=O)(=O)CC2)c1	-2	0.34	–
CC(C)C[C@H]1C(=O)NCCN1S(=O)(=O)c1cc(Cl)cnc1N	-11	0.98	–
Fc1cccc(-c2cc(CN[C@H]3CCCOC3)on2)c1	-5	1.04	–
c1ccc(-c2cc(NC3CCCCC3)[nH]n2)cc1	-35	4.12	–
CNC(=O)c1cccc(C(=O)[C@H](C#N)c2nc(C)cc(C)n2)c1	-11	1.51	–
Cc1cc(C)c(NC(=O)c2cc(-c3cc(C)oc3C)nc3onc(C)c23)c(C)c1	-14	2.61	–
Cc1cc(S(=O)(=O)N(C)C)c(Br)cc1Br	-2	0.32	–
COc1ccc(CNC2CCOC3(CCOC3)C2)cc1Br (stereo unspecified)	0	-0.03	–
CN1CCN(Cc2cnc(-c3cccs3)s2)C(C)(C)C1=O	-10	1.88	–
Cc1nc2ncc(-c3cnn(CCC(C)C)c3)cn2n1	-4	0.82	–
CN(CCc1ccncc1)Cc1cscn1	-2	0.29	–
CC1=NN(CC(C)C)C(=O)[C@H]1C(=O)Nc1nccs1	3	-0.41	–
O=C(Nc1nc2c(s1)CN(Cc1ccccc1)CC2)c1ccc(Oc2ccccc2)cc1	-2	0.25	–
CCCn1cc(-c2ccncc2)cc1C(=O)NCCOC	-8	0.89	–

Structure (SMILES)	% Inhibition [%]	Z score	% Inhibition (2 µM)
Cc1nc(-c2ccnc(N3CCCC3)c2)no1	4	-0.59	–
Cn1nc(CN2CCc3ccc(C(F)(F)F)cc3C2)[nH]c1=O	-5	0.71	–
CC(=O)N[C@@H](C)c1nc(C2CCOCC2)nn1-c1cnc2ccccc2n1	-1	0.14	–
CCn1nc(NC(=O)c2cc(-c3cnn(C)c3)nc3onc(C)c23)cc1C	18	-2.05	–
OCC[C@H]1CN(Cc2cccc3cnccc23)CCN1Cc1ccc(F)c(F)c1	-3	0.5	–
COc1ccc(-c2cc(-c3ccccc3)c(C#N)c(N)c2C#N)cc1	6	-0.74	–
COc1ccc([C@@H]2CCCN2C(=O)Nc2cccc3cccnc23)cc1OC	-9	1.3	–
Cc1cc(N(C)C)nc(N2CCN(C(=O)CCC3CCCCC3)CC2)n1	0	-0.04	–
Cc1noc([C@H](C)N(C)Cc2cn3ccccc3n2)n1	-19	2.04	–
CCn1c2c(c(=O)n3ncc(C(=O)Nc4cc(Cl)ccc4C)c13)CNCC2	7	-0.96	–
CCn1cnnc1CN(C)C(=O)C1(c2ccccc2)CCCC1	-4	0.74	–
C[C@@H](Cc1ccsc1)N(C)S(=O)(=O)N(C)C	-3	0.45	–
CCC[C@H](C)C(=O)Nc1c(C)cccc1C	-3	0.33	–
COc1ccc(C(=O)N(Cc2cccs2)c2ccccn2)cc1Cl	-3	0.41	–
COC(=O)CNC(=O)N1CCCCCCN(C)C(=O)[C@@H]2CCC[C@@H]21	-14	1.75	–
Cc1cc(=O)[nH]c(-n2nc(C3CC3)cc2NC(=O)c2ccc(C(C)(C)C)cc2)n1	57	-4.8	–
COc1ccc(C2CN(C(=O)CC(C)C)CC2C(=O)N2CCCC2)c(OC)c1 (stereo unspecified)	-10	1.55	–
Cc1cccc(C(=O)N2CC[S+]([O-])CC(C)C2)n1 (stereo unspecified)	-2	0.28	–
O=C(NCCCN1CCOCC1)c1csc(-c2ccco2)n1	0	0.03	–
Cc1n[nH]c(C2CC2)c1C(=O)N[C@H](c1cccnc1)C(C)C	-16	1.89	–
Cc1noc(COCC(=O)Nc2ncc(Cc3ccccc3)s2)n1	-7	1.03	–
COCc1nc([C@H](N)c2ccc(OC)cc2)n[nH]1	–	–	-7% and -1%

Structure (SMILES)	% Inhibition [%]	Z score	% Inhibition (2 µM)
N#Cc1cccc(S(=O)(=O)N2CCc3nc(-c4ccc(Cl)cc4)ncc3C2)c1	-4	0.6	–
Cn1ccc(C(=O)N2CCN(Cc3ccccc3)[C@@H]3CS(=O)(=O)C[C@@H]32)n1	0	0.01	–
O=C(CCc1ccccc1)OCCN1CCCC1=O	4	-0.46	–
O=C(NC1CCOC1c1ccc(F)c(F)c1)N1CCC[C@@H]1CO (stereo partly specified)	-7	0.98	–
CC[C@H]1COCCN1C(=O)c1cnn(-c2ccncc2)c1	10	-1.31	–
COCC(O)CNC(C)c1cc2cc(Cl)ccc2o1 (stereo unspecified)	3	-0.53	–
CC(C)(NC(=O)C1CCCCC1)c1nc2c(c(C(N)=O)n1)OCCO2	-7	0.99	–
CN(CCc1nc(-c2c[nH]c3ccccc23)nn1C)[C@H]1CCS(=O)(=O)C1	-13	1.33	–
CCCn1nc(C(=O)O)c2c1CC[C@H](N(C)Cc1ccno1)C2	5	-0.73	–
Cc1ccc(C)c(C2CN(CCN3C(=O)CCC3=O)C(C)CO2)c1 (stereo unspecified)	2	-0.19	–
Cc1csc2c(NC3CCOC4(CCOC4)C3)ncnc12 (stereo unspecified)	-8	0.81	–
COc1ccc(-c2nn(-c3ccc(C(F)(F)F)cc3)c(N)c2NC(=O)NCCc2ccccc2OC)cc1	-6	0.92	–
C#CCN(Cc1ccco1)C(=O)N[C@H]1CCN(c2cc(Cl)ccc2OC)C1	-6	0.6	–
Fc1cccc(F)c1Cn1cc(COCc2ccccc2)nn1	-2	0.29	–
O=C(CCN1CCN(c2ccccc2)CC1)Nc1cccc2nonc12	-5	0.54	–
CC(C(=O)Nc1ccc(F)c(F)c1F)(C(F)(F)F)C(F)(F)F	-10	1.24	–
CCOc1cccc(COC(=O)c2oc(C)nc2C)n1	35	-3.99	–
C[C@H](NS(C)(=O)=O)c1ccc(Cl)cc1	-6	0.94	–
O=C1C2CCCCC2C(=O)N1CC(O)c1ccccc1 (stereo unspecified)	2	-0.38	–
CC(C)C[C@H](CNC(=O)c1cncn1C)CC(=O)OC1CCOC1 (stereo partly specified)	-4	0.68	–
